Data: PubChem BioAssay AID1508623 (National Center for Advancing Translational Sciences (NCATS), 2021)
The whole screen tested about 48,000 compounds, of which about 450 (0.94%) were called active. Not shown: some 19% with an inconclusive outcome. The call rests on the fitted dose curve; in most records, active means well fitted inhibition curve with a large enough effect; inconclusive means small, poorly fitted or top-dose-only effect; inactive means no such curve, though single readings can be large or run the other way. The list shows a part of the results.

Assay: Primary qHTS for Identification of Small Molecule Inhibitors of Huntingtin Promoter Activity; further: nearly all actives have a fitted effect of over 50% in size
Settings: HEK293 HTT promoter firefly luciferase reporter (activity 0% = vehicle and -100% = no light), 24 h; series mostly up to 57.5 µM; activity change, negative = inhibition: at the top concentration
Outline: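 HEK293 cells carrying firefly luciferase reporters were seeded at 2,500 per well in Opti-MEM and cultured for 24 h. They were then treated with compounds at up to 57.5 uM final for 24 h at 37 degrees C before Dual-Glo luminescence readout.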
Potency means the concentration at half of the fitted maximal effect.

Activity change, negative = inhibition, inactive:
COc1ccccc1N1CCN(C(=O)CN2C(=O)COc3ccc(S(=O)(=O)N4CCCC4)cc32)CC1 -15.9%
CCc1nc(SCc2cc(=O)c3cc(C)ccc3[nH]2)n[nH]1 -1.03%
CCn1c(/C(C#N)=C/c2ccccc2Cl)nc2ccccc21 22.7%
Cc1ccc(CNC(=O)Cn2c(=O)n(Cc3ccccc3)c(=O)c3sc4ccccc4c32)cc1 -7.16%
Cc1cc2ccccc2n1CCNC(=O)c1cc(C(F)(F)F)cc(C(F)(F)F)c1 -24.4%
Cn1nnc2c(N3CCN(c4ccccc4)CC3)ncnc21 -1.31%
COCCn1c(SCC(=O)c2ccc(C)cc2C)nc2cc(C(=O)NC3CCCC3)ccc2c1=O -7.49%
CC(=O)Nc1ccc(S(=O)(=O)Nc2ccc([N+](=O)[O-])cc2)cc1 -1.44%
CC(C)COc1ccc(C2=NC(c3ccncc3)=Nc3ccc(F)cc3N2)cc1 0.482%
CC(C)c1ccc(NC(=O)c2cc(S(=O)(=O)N3CCCCC3)cn2C)cc1 -6.75%
COc1ccccc1CNc1nc2ccc(Cl)cc2n2cnnc12 -8.46%
CC(=O)c1c(C)oc2c(Br)cc(NS(=O)(=O)c3ccc(Br)cc3)cc12 -7.31%
Cc1ccccc1OC(=O)CSc1nnc(-c2ccc3c(c2)OCO3)o1 -22.6%
COC(=O)c1cc(NC(=O)c2nn(C)c3c2CSc2ccccc2-3)cc(C(=O)OC)c1 -12.2%
CCN(CC)CCNC(=O)c1ccc(CSc2nc3ccncc3n2Cc2cccc(F)c2)cc1 -2.65%
CCOc1ccc(-c2cc3c(=O)n(Cc4nc(-c5ccc(OC(C)C)cc5)oc4C)ccn3n2)cc1Cl -24.8%
CCCCN(CC)CCCNC(=O)Cn1ncc2c3ccccc3n(Cc3ccccc3F)c2c1=O 31.4%
O=C(Oc1ccccc1)c1cccc(C(=O)Oc2ccccc2)c1 37.4% [at 116 µM]
COc1cc(C2SC[C@H]3C(=O)N(c4ccccc4)C(=O)N23)cc(OC)c1OC (some centres not stated) -26.2%
Cc1ccccc1-c1nc(CN2CCC(C(=O)NCCc3ccccc3)CC2)c(C)o1 -4.39%
O=C(CCCn1c(=O)c2ccccc2n(CC(=O)Nc2cccc(C(F)(F)F)c2)c1=O)NCc1ccc2c(c1)OCO2 -14.5%
CC(=O)Nc1c(I)c(NC(C)=O)c(I)c(C(=O)O)c1I 10.3%
O=C(NCc1cccn1Cc1ccccc1)Nc1ccc(Br)cc1F -13.1%
COc1cccc(N2CCN(c3ncnc4c3c(-c3ccccc3)cn4-c3ccc(C)cc3)CC2)c1 -18.3%
CCCc1cc(=O)[nH]c2nnc(SCC(=O)Nc3ccc(OC)cc3)n12 -15.3%
O=C(Nc1ccccc1C(=O)OCc1cc(=O)n2ccsc2n1)c1ccc(Cl)cc1 3.83%
O=C(COCc1cc(-c2ccc(F)cc2)on1)Nc1cccc(Cl)c1Cl -1.15%
Cc1ccc(S(=O)(=O)c2nnn3c2nc(NC(C)c2ccccc2)c2sccc23)cc1 (configuration not stated) 35%
CCOc1ccc(N2CC(NC(=O)c3ccc(S(=O)(=O)N4CCCC4)cc3)CC2=O)cc1 (configuration not stated) -3.43%
Cc1ccc(S(=O)(=O)NC(=O)NC2CCCCC2)cc1 4.66%
COc1ccccc1CNC(=O)CCNS(=O)(=O)c1ccc2c(c1)CCCC(=O)N2 -12.2%
CCOC(=O)c1c(C)[nH]c(C)c1S(=O)(=O)NCC(=O)NCc1ccc(C)cc1 4.66%
CCN(CC)S(=O)(=O)c1ccc2c(c1)nc(CN(C)C(=O)Nc1ccc(Cl)cc1)n2C 6.63%
Cc1ccc(Cl)cc1NC(=O)Nc1nnc(N2CCCC(C)C2)s1 (configuration not stated) 4.18%
CN(Cc1ccc(F)cc1)S(=O)(=O)c1nnc(NC(=O)c2ccccc2Br)s1 -32.3%
O=C(Cn1c(=O)n(Cc2ccc(Cl)cc2)c(=O)c2cccnc21)Nc1ccccc1C(F)(F)F -5.11%
Cc1ccc(NC(=O)CNC(=O)Cn2c(C)cc3ccccc3c2=O)cc1F -5.74%
COCCNC(=O)c1c(-c2ccccc2)c(-c2ccccc2)nn(C)c1=O -5.18%
CCOC(=O)c1c(C)c(-c2ccccc2)n(CC(=O)NCc2cccc(OC)c2)c1C -4.68%
Cc1ccc([N+](=O)[O-])cc1S(=O)(=O)N1CCn2cccc2C1c1ccccc1F (configuration not stated) -3.18%
Cn1c(=O)oc2cc(S(=O)(=O)N3CCC(C(=O)NCc4ccccc4)CC3)ccc21 -14.4%
CC(=O)c1ccc(NC(=O)Cn2cnc3nc4c(cc3c2=O)CC(C)CC4)cc1 (configuration not stated) 7.58%
CCOc1ccccc1C(=O)Nc1ccc(S(=O)(=O)Nc2onc(C)c2C)cc1 -8.46%
CCC(Sc1nnc(C)n2c1cc1sccc12)C(=O)Nc1ccccc1F (configuration not stated) -0.549%
CCc1cc(C(N)=S)ccn1
Cc1cccc(-c2nc3scc(CCNS(=O)(=O)c4c(C)noc4C)n3n2)c1 -14.2%
CCCCC(=O)Oc1ccc2oc(-c3ccc(OC)cc3)cc(=O)c2c1 89%
CCOc1cc(CNC(=O)c2ccc(Cn3c(=O)c4cccn4c4cccnc43)cc2)ccc1OC -5.49%
Cc1ccc(NC(=O)CSc2nc3ccc(NC(=O)c4cccs4)cc3s2)cc1 -1.55%
Cc1ccc(CNC(=O)N2CCC(CN3CCC(C)CC3)CC2)cc1 -11.4%
CCN1CCN(Cc2nc3cc(NC(=O)c4cc(OC)c(OC)c(OC)c4)ccc3n2CC)CC1 2.48%
COc1ccc(S(=O)(=O)c2cn(CC(=O)Nc3cc(C)ccc3C)c3ccccc3c2=O)cc1 -19.7%
COc1ccc(S(=O)(=O)n2nc(-c3ccco3)nc2NCc2ccc(N(C)C)cc2)cc1 -25.8%
COc1ccc(NC(=O)Cn2cnc3sc(C)c(S(=O)(=O)N4CCN(c5ccccc5OC)CC4)c3c2=O)cc1OC -5.45%
CCC1CN(C(=O)NCc2ccc(C)cc2)c2cc(Cl)ccc2O1 (configuration not stated) -25.1%
CCc1ccccc1NC(c1nnc(-c2cccc(F)c2)o1)c1ccc(F)cc1Cl (configuration not stated) -24.2%
CC(C)c1ccc(NC(=O)CN2C(=O)COc3ccc(S(=O)(=O)N4CCCCC4)cc32)cc1 -27.6%
Cc1ccc2scc(N3CCc4ccccc4C3)c(=O)c2c1 25.8%
Cc1ccc(C)c(N2CCN(C(=O)Cn3ncc4c(=O)oc5ccccc5c43)CC2)c1 4.62%
COc1cc(OC)cc(-c2nc3nc(C)c(CCC(=O)Nc4ccc(C)c(C)c4)c(C)n3n2)c1 -0.558%
Cn1c(=O)c2c(-c3cccc(Br)c3)n(C(C)(C)CO)cc2n(C)c1=O -15.1%
Cc1cccc(C(=O)NCC(=O)OCc2cc(=O)n3nc(CC(C)C)sc3n2)c1 -13.1%
COc1cccc(C(=O)N2CCN(CCc3ccncc3)CC2)c1 -16.8%
O=C1N(Cc2ccccc2)c2ccc(Cl)cc2C1(O)c1c[nH]c2ccccc12 (configuration not stated) -9.3%
COc1ccccc1NC(=O)Cn1c(SCC(=O)N(C)c2ccccc2)nc2ccccc21 -23.4%
Cc1cc2nc(-c3ccc(OCc4ccccc4Cl)cc3)cc(C(F)(F)F)n2n1 0.6%
Fc1ccc(Nc2ncnc3onc(-c4cccc(Cl)c4)c23)c(F)c1 7.53%
COc1cccc2c1cc1c(=O)n(CC(=O)N3CCN(c4ccc(Cl)cc4)CC3)nc(C)n12 -2.96%
Cc1ccc(S(=O)(=O)NC2(C(F)(F)F)NC(=O)N(CCc3ccccc3)C2=O)cc1 (configuration not stated) -10.9%
CCOc1ccccc1NC(=O)CSc1nnc2[nH]c(=O)cc(-c3ccccc3)n12 -4.27%
O=C(Nc1ccccc1Cl)C1CCN(c2nc3ccccc3nc2C(F)(F)F)CC1 -27.5%
CCOC(=O)c1cc2c(=O)n3ccccc3nc2n(C(C)C)c1=NC(=O)c1cc2ccccc2o1 -9.25%
COc1ccc(CNC(=O)CN2C(=O)COc3ccc(S(=O)(=O)Nc4ccccc4)cc32)cc1 -16.7%
COc1ccc(-n2nc(C(=O)N3CCCC(C)C3)c3c4ccccc4n(C)c3c2=O)cc1 (configuration not stated) -18.5%
O=C(c1ccccc1)n1nc(-c2ccccc2)nc1NCc1ccc(F)cc1 -8.25%
CCc1ccc(C(=O)c2cn(CC(=O)NC3CCCCC3)c3nc(C)ccc3c2=O)cc1 -5.78%
CNC(=O)c1c(NC(=O)c2ccc(S(=O)(=O)N3CCCCC3)cc2)sc2c1CCC2 -5.86%
COc1ccc(-n2ccnc(NCc3ccccc3OC)c2=O)cc1 -25.6%
CCOc1ccc(N2CC(NC(=O)/C=C\c3ccc4c(c3)OCO4)CC2=O)cc1 (configuration not stated) -9.76%
O=S(=O)(Nc1cc(F)ccc1F)c1ccc2[nH]c3c(c2c1)CCCC3 -4.45%
CSc1nc2c(c(=O)[nH]1)C(c1cccc(F)c1F)CC(=O)N2 (configuration not stated) -17.7%
CC(C)(C)C(=O)Nc1ccc2nc(SCC(=O)N3CCOCC3)sc2c1 0.415%
CC(C)c1ccc(NC(=O)CS(=O)(=O)c2cccc3nsnc23)cc1 -7.31%
COc1cccc(CNC(=O)c2ccc3c(c2)c(C)c(C)n3Cc2ccccc2)c1OC -5.2%
CCCCN(CCCC)CCNC(=O)Cn1nc(C)n2c(cc3sccc32)c1=O -6.15%
CCOC(=O)c1ccccc1NC(=O)CSc1ccc(-c2cccs2)nn1 -22%
Cc1cc(-c2nc3ncccc3o2)ccc1NC(=O)COc1ccccc1C 5.53%
COc1ccc(-c2cc(C(F)(F)F)nc(SCCC(=O)Nc3ccccc3F)n2)cc1 -2.94%
O=C(Cc1ccccc1)NC1CC(=O)N(c2ccccc2)C1 (configuration not stated) -17.9%
CCc1ccc(Nc2nn(-c3ccc(OC(F)(F)F)cc3)nc2C(C)=O)cc1 1.7%
Cc1ccc(-c2noc(CNS(=O)(=O)c3ccc(F)cc3)n2)cc1 -28.4%
Cn1cc(S(=O)(=O)c2cccc(Cl)c2)c(=O)c2cc(F)c(N3CCN(c4ccc(F)cc4)CC3)cc21 -12.9%
COc1ccccc1N1CCN(C(=O)CN2C(=O)COc3ccc(S(=O)(=O)N4CCCCCC4)cc32)CC1 -14.8%
Cc1cccc(OCC(=O)Nc2nc3c(s2)CC(C(C)(C)C)CC3)c1C (configuration not stated) -5.68%
Cc1c(NC(=O)c2cc(-c3ccc(F)cc3)on2)c(=O)n(-c2ccccc2)n1C -4.32%
CCN(CC)c1ccc(NC(=O)c2cnc3c(-c4ccccc4)c(C)nn3c2C)c(C)c1 -28.5%

Potency, active:
COc1ccc(NS(=O)(=O)c2cc(Br)cc3c2N(C(=O)C2CC2)CC3)cc1OC 5.62 µM
